# Experimental data: the supplement of paper PMC7826260
# The other results are listed elsewhere or left out. Each Rep nickase domain was tested in vitro on the same pool of single strands (3 µM enzyme, 1 h, 37 °C); shown is the middle of each 90-letter strand. Values are log2 of uncut reads against the no-enzyme pool; strong cutting gives strongly negative numbers. There is no active / inactive call. Counts are relative to all reads; values above 0 arise when much of the pool is cut.
# Experiments:
# Assay in all cases: uncleaved DNA left, log2 of reads against the no-enzyme library (log2 ratio); higher = less cleavage (more negative = more Rep cleavage of the k-mer); sequences stand for … in CTCGTCCG…ACCGGAGA
# [1] = system: T1, Rep nickase domain of Muscovy duck circovirus
# T1 sequence (Rep 1-111, printed without the tag): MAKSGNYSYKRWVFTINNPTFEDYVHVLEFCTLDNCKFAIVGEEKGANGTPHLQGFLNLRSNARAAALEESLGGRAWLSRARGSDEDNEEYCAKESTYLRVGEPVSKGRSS
# Description: (§1)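 A pool of 90-nt single-stranded DNAs with seven random bases just before the constant AC of the nick site (name = the seven bases) was cut by 3 µM recombinant His6-SUMO-tagged Rep nickase domain (300 nM DNA, 50 mM HEPES pH 8.0, 50 mM NaCl, 1 mM MnCl2, 1 h, 37 °C, three replicates). Uncut DNA was amplified and sequenced.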
# [2] = system: T2, Rep nickase domain of banana bunchy top virus
# T2 sequence (Rep 1-94, printed without the tag): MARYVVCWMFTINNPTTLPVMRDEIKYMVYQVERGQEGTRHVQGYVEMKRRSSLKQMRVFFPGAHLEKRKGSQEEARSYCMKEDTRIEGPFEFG
# Description: as §1
# [3] = system: T3, Rep nickase domain of cabbage leaf curl virus
# T3 sequence (Rep 1-116, printed without the tag): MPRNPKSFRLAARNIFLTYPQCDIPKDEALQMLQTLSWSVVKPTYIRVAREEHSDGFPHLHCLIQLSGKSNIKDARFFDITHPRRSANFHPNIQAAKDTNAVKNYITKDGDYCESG
# Description: as §1
# [4] = system: T4, Rep nickase domain of chickpea chlorotic dwarf virus
# T4 sequence (Rep 1-124, printed without the tag): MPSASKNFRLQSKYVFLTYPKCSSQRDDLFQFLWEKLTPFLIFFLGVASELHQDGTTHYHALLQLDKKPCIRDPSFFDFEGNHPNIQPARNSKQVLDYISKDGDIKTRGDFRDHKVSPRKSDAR
# Description: as §1
# [5] = system: T5, Rep nickase domain of faba bean necrotic yellows virus
# T5 sequence (Rep 1-98, printed without the tag): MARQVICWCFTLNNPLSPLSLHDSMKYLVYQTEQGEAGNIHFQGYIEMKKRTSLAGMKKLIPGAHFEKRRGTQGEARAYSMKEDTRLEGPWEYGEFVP
# Description: as §1
# [6] = system: T6, Rep nickase domain of maize striate mosaic virus
# T6 sequence (Rep 1-117, printed without the tag): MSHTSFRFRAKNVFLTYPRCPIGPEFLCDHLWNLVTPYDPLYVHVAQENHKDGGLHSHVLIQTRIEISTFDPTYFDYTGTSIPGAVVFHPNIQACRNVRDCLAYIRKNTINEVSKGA
# Description: as §1
# [7] = system: T7, Rep nickase domain of porcine circovirus 2
# T7 sequence (Rep 2-116, printed without the tag): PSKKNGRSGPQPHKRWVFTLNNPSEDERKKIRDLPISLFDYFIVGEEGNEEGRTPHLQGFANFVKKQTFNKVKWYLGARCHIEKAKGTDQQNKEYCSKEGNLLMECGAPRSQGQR
# Description: as §1
# [8] = system: T8, Rep nickase domain of tomato golden mosaic virus
# T8 sequence (Rep 1-124, printed without the tag): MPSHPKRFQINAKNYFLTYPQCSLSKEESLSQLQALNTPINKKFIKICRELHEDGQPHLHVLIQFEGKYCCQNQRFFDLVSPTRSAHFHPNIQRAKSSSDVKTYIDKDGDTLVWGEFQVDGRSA
# Description: as §1
# [9] = system: T9, Rep nickase domain of tomato yellow leaf curl virus
# T9 sequence (Rep 1-136, printed without the tag): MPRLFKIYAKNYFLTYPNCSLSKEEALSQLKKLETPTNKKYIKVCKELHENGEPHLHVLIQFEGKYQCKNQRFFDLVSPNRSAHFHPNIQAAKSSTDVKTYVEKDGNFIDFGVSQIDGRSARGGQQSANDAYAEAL
# Description: as §1
# [10] = system: T10, Rep nickase domain of wheat dwarf virus
# T10 sequence (Rep 1-137, printed without the tag): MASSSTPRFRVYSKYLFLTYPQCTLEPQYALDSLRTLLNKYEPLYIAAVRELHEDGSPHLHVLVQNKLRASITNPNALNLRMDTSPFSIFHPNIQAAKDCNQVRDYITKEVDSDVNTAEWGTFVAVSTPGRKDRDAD
# Description: as §1
Sequence,uncleaved DNA left (log2) [1],uncleaved DNA left (log2) [2],uncleaved DNA left (log2) [3],uncleaved DNA left (log2) [4],uncleaved DNA left (log2) [5],uncleaved DNA left (log2) [6],uncleaved DNA left (log2) [7],uncleaved DNA left (log2) [8],uncleaved DNA left (log2) [9],uncleaved DNA left (log2) [10]
CCTTAAC,0.0673,-0.0657,-0.37,-1.89,0.108,-0.909,-0.0069,-0.067,-0.131,0.0797
ATCTGTG,0.0212,0.156,-0.645,-0.00982,0.145,-0.83,0.239,0.0816,0.0937,0.0147
GCACGAT,0.0665,0.00388,0.00787,-0.23,0.044,-0.0502,0.204,0.143,0.0863,-0.0686
GAAGACC,9.39e-05,0.137,0.377,0.742,-0.0225,0.59,0.107,0.0566,0.116,0.179
GCGCCAT,-0.0187,0.00405,0.435,1.09,0.0973,1.38,-0.00424,-0.0889,0.034,0.0543
GCAGCGA,0.0281,-0.0857,-0.66,-0.0808,0.054,-0.627,0.174,-0.131,0.0721,-0.156
TCATCAT,-0.227,0.111,-0.0193,-0.693,-0.0653,-0.257,-0.351,0.00225,0.116,0.0345
CACCCTC,-0.0884,-0.19,-0.00126,-0.747,-0.182,-0.377,-0.896,-0.234,-0.0303,-0.0693
ACATTGA,-0.0292,-0.0721,-0.698,-0.577,-0.0395,-1.21,0.0833,-0.076,-0.00963,-0.141
AGTCTGA,-0.0223,0.000437,0.234,0.891,0.0534,1.46,-0.000534,0.0735,-0.0317,0.011
GCTTATT,-2.74,-1.2,-0.278,-1.56,-0.149,0.257,-2.91,-0.00126,0.0901,-0.447
TATAATC,0.0381,0.0934,0.11,-0.313,0.184,-0.455,0.0722,0.0295,0.19,0.257
GTTCTTT,0.039,0.0138,0.329,0.711,-0.074,1.7,0.0489,0.122,0.158,0.0437
CTCGATC,0.119,-0.00354,0.0036,-0.0958,-0.0598,-0.433,-0.131,-0.00379,-0.0447,-0.0391
ACGCCTA,0.125,0.0977,-0.29,-0.805,0.0886,-0.37,-0.0249,0.14,0.00839,0.036
AGCGCCG,-0.0513,-0.0841,-0.229,-0.031,-0.0626,-0.0305,0.026,0.0822,-0.104,-0.0486
TCCAGAG,-0.0738,-0.00752,-0.447,-0.522,0.0349,-1.06,0.138,-0.0573,0.0334,-0.111
GATCCGC,0.183,0.0205,0.0228,0.103,0.0616,-0.398,0.0515,0.0428,0.0377,0.162
GAATAAC,0.0838,0.00565,-0.501,-1.06,0.0904,0.348,0.0826,0.0125,-0.0511,-0.0151
GGCGTCT,-0.0174,0.0478,0.286,0.937,0.0821,1.76,0.134,0.0679,0.0825,0.174

Sequence,uncleaved DNA left (log2) [1],uncleaved DNA left (log2) [2],uncleaved DNA left (log2) [3],uncleaved DNA left (log2) [4],uncleaved DNA left (log2) [5],uncleaved DNA left (log2) [6],uncleaved DNA left (log2) [7],uncleaved DNA left (log2) [8],uncleaved DNA left (log2) [9],uncleaved DNA left (log2) [10]
AGTAACA,0.0801,0.11,-0.14,-1.37,0.0509,0.0566,-0.387,0.163,0.0587,0.119
GCGCTAG,0.0192,0.0868,-0.0477,0.297,0.0272,-0.0954,0.0641,0.0489,0.0385,0.12
ATTAACT,-0.838,-0.365,-0.583,-3.22,0.0811,-0.922,-3.25,0.0515,-0.0639,-0.0683
CAATAAC,0.0448,0.0634,-1.59,-2.94,0.0911,-1.09,0.11,-0.0927,0.0214,-0.143
TTAAAGT,0.192,0.154,0.169,-0.317,0.115,-0.621,0.0395,0.00468,0.0786,0.0293
TTAAATA,0.0366,0.0993,0.176,-1.11,0.0563,-0.0613,0.128,0.106,0.0431,0.177
CGTCCGG,0.0687,0.0513,0.371,1.06,-0.0379,1.21,0.0417,0.0852,-0.0553,0.00275
CTTGAGA,0.0264,0.00637,-0.34,-0.223,0.0434,-1.11,0.11,-0.0961,0.129,-0.106
CGTTTTG,-0.0255,-0.0834,-0.455,-0.195,0.0925,-0.736,0.0965,-0.078,0.124,0.101
GCAGATG,0.0431,0.0413,0.0855,0.546,-0.0551,0.561,0.253,0.224,0.0188,0.13
TTTGCTC,0.023,0.118,-0.153,-1.04,0.0439,-1.19,0.0694,-0.0961,0.0894,-0.111
TGAGTAT,0.0963,0.117,0.22,0.653,-0.0213,1.38,0.1,0.0672,0.0675,0.0187
ACAAGCG,-0.044,0.0183,-0.504,0.936,-0.0538,-0.0846,0.0627,-0.0767,0.00429,-0.0775
CTAAATG,0.0245,0.178,-0.5,-0.563,0.000288,-1.02,0.102,0.0791,0.0938,0.00896
GCCTTCT,-0.443,0.0471,0.0905,-1.02,0.055,-0.0177,-1.76,-0.0318,0.0499,-0.0162
TGATCTG,-0.0815,-0.0318,-0.00576,0.593,-0.0646,1.44,0.0789,-0.0815,-0.0895,0.0463
AAATGCC,0.0358,0.025,-1.62,-1.89,0.0879,-1.45,0.000454,-0.119,0.035,-0.123
ACTTTTG,0.0131,0.183,-0.669,-0.256,0.0808,-1.02,0.196,0.00857,0.091,0.0948
ATTATTG,0.0529,-0.0491,-0.589,-0.642,-0.0271,-1.43,0.12,0.00717,0.0403,-0.114
AGCACAT,0.0903,0.172,0.218,0.841,0.0292,1.28,-0.0442,0.0209,0.0593,0.115

Sequence,uncleaved DNA left (log2) [1],uncleaved DNA left (log2) [2],uncleaved DNA left (log2) [3],uncleaved DNA left (log2) [4],uncleaved DNA left (log2) [5],uncleaved DNA left (log2) [6],uncleaved DNA left (log2) [7],uncleaved DNA left (log2) [8],uncleaved DNA left (log2) [9],uncleaved DNA left (log2) [10]
AGGGCCT,-0.0281,0.00396,0.387,0.713,0.00356,1.42,0.0737,0.0519,0.01,0.129
ACATGGA,0.0235,-0.0713,-0.406,-0.407,-0.034,-0.916,0.0775,0.0758,-0.0163,-0.0739
CACGCAC,0.00519,-0.146,-0.422,-0.0845,-0.0498,-0.835,-0.055,-0.035,-0.147,-0.159
GAATTTA,-0.0316,0.144,-0.0594,-0.775,0.139,0.932,-0.454,0.0629,0.125,-0.0144
CCTGTTC,0.00527,0.105,0.249,-0.591,-0.0241,-0.324,0.109,0.0782,0.0576,-0.069
GGTAACT,0.0297,0.0385,0.521,0.915,0.0665,1.98,0.0285,0.00166,0.0339,0.0823
ACAGACG,0.152,0.173,-0.457,0.316,0.0139,-0.352,0.221,0.17,0.169,0.0999
AGCGATT,0.0787,0.203,0.192,0.658,0.078,1.61,0.116,0.162,-0.0592,0.107
GCGGACC,0.0619,0.0973,0.565,1.56,-0.0288,1.84,0.168,0.0634,0.0224,0.16
CCCCCCA,-0.12,-0.204,-0.0229,-0.864,-0.071,-0.464,-0.342,-0.225,-0.023,0.0124
CTCAGTT,-0.13,-0.19,-0.347,-1.82,-0.0484,-0.587,-0.288,-0.33,-0.127,-0.256
ATATTGT,-0.431,-0.139,-0.659,-1.12,-0.0259,-1.4,-0.667,-0.128,-0.104,-0.259
CCGAAGC,-0.0856,-0.246,-0.164,-0.565,-0.203,-0.912,0.0188,-0.137,-0.0286,-0.191
CGATTGT,-0.0571,0.0289,-0.0164,0.578,0.0241,1.21,-0.0252,-0.175,-0.0926,-0.0169
CCATTGA,0.000717,0.0112,-0.557,-0.158,0.103,-0.956,0.272,-0.00284,0.16,0.0385
GGTGGCC,0.0371,0.0953,0.628,1.41,0.112,1.9,0.274,0.185,0.159,0.166
CCATCCA,-0.00738,-0.0101,-0.0312,-1.11,0.0502,-0.605,0.0554,0.0709,0.103,0.0649
GACCGCC,-0.0274,-0.0951,0.0169,0.0143,-0.0322,-0.233,-0.0189,-0.0279,-0.0609,-0.0716
CGGCGCT,-0.01,-0.116,-0.264,-0.306,-0.00511,-0.311,0.0909,0.0198,-0.0963,-0.0276
TCACGAT,-0.0875,-0.0225,-0.0331,-0.585,-0.102,0.37,-0.127,-0.0367,-0.161,-0.0308
